Consider 94 molecules from PubChem BioAssay AID1963576 (National Center for Advancing Translational Sciences (NCATS), 2024).

Among all 46,000 compounds or so, about 60 (0.1%) were called active. About 3% were inconclusive and are not listed. Calls come from the whole dose curve; as a rule, active = well fitted inhibition curve with a large enough effect; inconclusive = small, poorly fitted or top-dose-only effect; inactive = no such curve, though single readings can be large or run the other way. The list shows a part of the results.
Potency is the fitted concentration of half-maximal effect.

The nature of this assay: Primary qHTS assay for Inhibitors of ovarian cancer metastasis using an organotypic tumor microenvironment (TME) model.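 For Potency: count of GFP cancer cells still attached after washing and fixation.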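 For activity change, negative = inhibition: plate controls were DMSO wells for no effect and tomatine positive control wells for full effect.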 Note: nearly all actives have a fitted effect of over 65% in size. The following applies: SKOV3ip1-GFP adhesion/invasion on 3D omental model, fluorescence; series mostly up to 45.8 µM; activity change, negative = inhibition: at the top concentration. In short, it runs like this:
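A 3D layer of primary human omental fibroblasts, mesothelial cells, fibronectin and collagen I, grown 48 hr, received SKOV3ip1-GFP cells in serum-free medium plus compounds at 0.36-46 umol/L. After 2 hr RT and 16 hr 37 C, fixed adherent GFP cells were counted; normalized to DMSO and tomatine.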
In general terms: qHTS replaces the single test concentration by a dilution series.
For the molecule `CCCCn1c(-c2ccc(S(=O)(=O)N3CCOCC3)cc2)csc1=Nc1ccccc1`, the “activity change, negative = inhibition” value was inactive: -0.438%. On the same count and under the same terms, with `CCOc1ccccc1NC(=O)c1cccc2c1C(=O)N(C1CCCCC1)C2` the figure was inactive: -1.54%. The same measure, in the same setting: with `COc1cccc(NC(=O)Cn2c(=O)n(-c3ccc(CC(=O)NCC4CCCO4)cc3)c(=O)c3ccccc32)c1` (centres undefined) the figure was inactive: 12.9%.

On to `CCC(=O)Nc1nnc(S(=O)(=O)N(C)Cc2ccccc2)s1`, for which the call was inactive. For `CCOc1ccc(C(=O)OCc2cc(=O)n3nc(C4CCCCC4)sc3n2)cc1`, the “activity change, negative = inhibition” value was inactive: 0.319%. `CSc1ncc(Cl)c(C(=O)N(Cc2ccccc2Cl)C2CCS(=O)(=O)C2)n1` (centres undefined): the molecule was classed as inactive.

As to `Cc1ccc2nc(NC(=O)c3cc(=O)c4cc(C)c(C)cc4o3)sc2c1`, the “activity change, negative = inhibition” value was inactive: 13.3%.

On to `CCOc1ccccc1C1C(C(=O)Nc2ccccc2OC)=C(C)Nc2nc3ccccc3n21` (centres undefined), for which the molecule was called inactive.

For the molecule `CCOc1ccc(NC(=O)Cc2csc(COc3cccc(C)c3)n2)cc1`, the “activity change, negative = inhibition” value is inactive: -7.18%. As to `CCCN1C(=O)C(NC(=O)c2ccccc2OC)(C(F)(F)F)C(C(=O)OC)=C1C` (centres undefined), the “activity change, negative = inhibition” value was inactive: 8.9%. `Cc1ccc(C)c(NC(=O)CSc2cn(CC(=O)N3CCCC3)c3ccccc23)c1`: the call was inactive.

`COc1ccccc1CNC(=O)c1ccc(C)c(-n2cnc3cccnc32)c1`: the “activity change, negative = inhibition” value was inactive: 20.6%. In the case of `O=C(NCCc1csc(-c2cccnc2)n1)c1cccc(C(F)(F)F)c1`, the call was inactive. As to `CCOc1ccc(NC(=O)Cn2c(C)ccc(C#N)c2=O)cc1`, the “activity change, negative = inhibition” value was inactive: -7.42%. The same measure, in the same setting: with `CCc1nnc2c3ccccc3nc(N3CCN(c4ccc(C)cc4C)CC3)n12` the figure was inactive: 5.03%; with `CSc1ccc(CNC(=O)CCn2ccc3cc(S(=O)(=O)N4CCCC4)ccc32)cc1`, inactive: 0.475%.

Turning to `COc1ccc(NS(=O)(=O)c2nnc(NC(=O)c3ccccc3F)s2)cc1`, the outcome was inactive. The same measure, in the same setting: with `CCOC(=O)N1CCc2c(sc3c2c(=O)n(-c2ccc(Cl)cc2)c(=O)n3CC(=O)c2ccc(F)cc2)C1` the entry was “inactive”; with `COc1ccccc1NC(=O)CSc1nc2c(oc3ccccc32)c(=O)n1-c1ccc(C)cc1`, “inactive”; with `COc1ccc(CN2C(=O)C(NC(=O)c3ccc(C)cc3)(C(F)(F)F)N=C2c2ccccc2)cc1` (centres undefined), “inactive”. In the case of `CCOC(=O)c1ccccc1NC(=O)CN(c1ccccc1OC)S(=O)(=O)c1ccc(C)cc1`, the “activity change, negative = inhibition” value is inactive: 2.45%.

In the case of `COc1ccc(-c2nn(C)c3sc(C(=O)N4CCN(c5cccc(C)c5C)CC4)cc23)cc1OC`, the “activity change, negative = inhibition” value was inactive: -11.3%.

As for `O=C(CCCn1c(=O)c2cccn2c2cccnc21)NCCc1ccc(Cl)cc1`, the call was inactive. Still for that read-out and setting: the value for `Cc1cc(Br)ccc1NC(=O)c1cc2c(s1)-c1ccccc1SC2` was “inactive”. For `O=C(/C=C/c1cn(CC(O)CN2CCCCCC2)c2ccccc12)c1ccccc1` (centres undefined), the “activity change, negative = inhibition” value was inactive: -12.1%. Still for that read-out and setting: the value for `Cc1ccc(CNc2nc3c(S(=O)(=O)c4ccccc4)nnn3c3ccsc23)cc1` was inactive: 2.58%; that for `COc1cc(/C=C/c2nc(C#N)c(NC3CCCCC3)o2)cc(OC)c1OC` was inactive: 8.11%; that for `COc1ccc(-n2ccnc(NCCc3ccc(S(N)(=O)=O)cc3)c2=O)cc1` was inactive: -0.503%. On the same count and under the same terms, the value for `Cc1c(C(=O)N2CCC(c3nc4ccccc4s3)CC2)oc2cc(Br)ccc12` was inactive: -0.126%. As to `Cc1ccc2c(c1)c1c(c(=O)n(-c3cccc(Cl)c3)c(=O)n1CC(=O)N1CCCC1)n2C`, the molecule was called inactive. On the same count and under the same terms, with `CCOC(=O)c1cc(S(=O)(=O)Nc2ccc(Br)c(C)c2)[nH]n1` the entry was “inactive”; with `COc1cc(C2c3c(oc4cc(C)c(C)cc4c3=O)C(=O)N2CCCN2CCOCC2)ccc1O` (centres undefined), “inactive”. Regarding `COc1ccc(Br)cc1CNC(=O)c1cc2ccccn2n1`, the “activity change, negative = inhibition” value is inactive: -9.88%. In the case of `CCOc1cccc2cc(-c3nc4sc5c(c4c(=O)[nH]3)CCC(C(C)(C)C)C5)c(=O)oc12` (centres undefined), the outcome was inactive.

`COc1ccc(Br)cc1CNC(=O)c1cc(=O)[nH]c2ccc(S(=O)(=O)N3CCCC3)cc12`: the “activity change, negative = inhibition” value is inactive: 5.15%. Still for that read-out and setting: the value for `CCOc1ccc(-n2c(SCc3nc(-c4ccc(OC)cc4)no3)nnc2-c2ccncc2)cc1` was inactive: 8.2%. `CCCNC(=O)c1cc2nc(-c3ccc(Br)cc3)cc(C(F)(F)F)n2n1`: the molecule was classed as inactive. Regarding `Cc1nc2ccccc2n1CCc1nc2c3ccccc3nc(SCc3cccc(F)c3)n2n1`, the “activity change, negative = inhibition” value is inactive: -1.15%. Same read-out and setting: with `O=C(COC(=O)c1cc(-c2cccs2)nc2ccccc12)c1ccc(Br)cc1` the figure was inactive: 3.13%; with `CCOc1ccccc1NC(=O)Cn1c(=O)n(CCC(C)C)c(=O)c2cccnc21`, inactive: 7.93%.

With `COc1ccc(CCNC(=O)CCn2c(=O)c3ccccc3n(CC(=O)Nc3ccccc3F)c2=O)cc1OC`, the “activity change, negative = inhibition” value was inactive: -7.04%.

As for `CC(C)(C)c1ccc(C2Sc3ccccc3NC3=C2C(=O)c2ccccc23)cc1` (centres undefined), the “activity change, negative = inhibition” value is inactive: 0.13%. On to `Cc1ccc2c(=O)c(C(=O)c3ccccc3)cn(CC(=O)Nc3ccc4c(c3)OCCO4)c2n1`, for which the “activity change, negative = inhibition” value was inactive: -4.14%. `O=C1CN(C(=O)Cc2ccc(F)cc2)C(c2ccccc2)c2cc(Br)ccc2N1` (centres undefined): the “activity change, negative = inhibition” value is inactive: -1.79%.

With `Cc1ccc(NC(=O)Cn2nc(C)c3nn(-c4ccc(Cl)cc4)c(C)c3c2=O)cc1C`, the “activity change, negative = inhibition” value is inactive: -5.34%. The same measure, in the same setting: the value for `Cn1c(=O)oc2cc(S(=O)(=O)N3CCC(C(=O)NCc4ccccc4Cl)CC3)ccc21` was inactive: -27.1%. The same measure, in the same setting: the value for `CCOc1ccc(NC(=O)CC2C(=O)N(c3ccccc3)C(=O)N2CCc2ccc(OC)cc2)cc1` (centres undefined) was inactive: -6.27%; that for `COC(=O)c1cnn(-c2ccc(C(=O)Nc3cccc(C(C)=O)c3)cc2)c1N` was inactive: -6.32%; that for `COc1ccc(Cn2c(C(=O)O)c(CNCc3cccc(OC)c3)c3ccc(C)cc32)cc1` was inactive: -7.27%.

In the case of `O=C1c2oc3ccccc3c(=O)c2C(c2ccc(Br)cc2)N1c1ccccn1` (centres undefined), the outcome was inactive.

For `CCCCN(CC)CCNC(=O)Cn1cnc2sc(C)c(S(=O)(=O)N3CCC(C)CC3)c2c1=O`, the “activity change, negative = inhibition” value was inactive: 0.568%.

As to `CCc1nn(CC(=O)N2CCN(c3cccc(C)c3C)CC2)c(=O)c2cc3occc3n12`, the call was inactive. Regarding `Cc1cccc(N2CCN(C(=O)C3CCC(CNS(=O)(=O)c4ccc(Br)s4)CC3)CC2)c1C` (centres undefined), the call was inactive. For the molecule `COc1ccc(N2C(=O)CSC23C(=O)N(CC(=O)NC2CCCCC2)c2ccccc23)cc1` (centres undefined), the “activity change, negative = inhibition” value was inactive: -2.3%. As for `Cc1cccc(OCc2cc(=O)n3c(-c4ccccc4)csc3n2)c1C`, the result was inactive. `CCCn1c(SCc2nc(-c3ccccc3C)no2)nnc1-c1ccc(Cl)cc1`: the “activity change, negative = inhibition” value is inactive: -0.0973%. The same measure, in the same setting: the value for `CCOC(=O)c1[nH]c(C)c(CCC(=O)Nc2c(C)cc(C)cc2C)c1C` was inactive: 3.89%; that for `CC(=O)c1ccc(N2CCN(S(=O)(=O)c3c(C)nc4sc(C)cn4c3=O)CC2)cc1` was inactive: 0.613%; that for `CCC(Oc1ccccc1)C(=O)Nc1ccc(O)c(-c2nc3cc(C)ccc3o2)c1` (centres undefined) was inactive: 6.29%. For the molecule `CCC(C(=O)Nc1ccccc1C(=O)OC)n1c(C)c2cnn(-c3ccccc3)c(=O)c2c1C` (centres undefined), the call was inactive. The same measure, in the same setting: with `O=C(CN1C(=O)CCSc2ccc(S(=O)(=O)N3CCCC3)cc21)Nc1ccccc1` the entry was “inactive”. Consider `CCn1cc(C(=O)NCCCOC(C)C)c(=O)c2cc(S(=O)(=O)N3CCc4ccccc4C3)ccc21`, for which the “activity change, negative = inhibition” value is inactive: -22.7%. Still for that read-out and setting: with `CCCCn1cc(S(=O)(=O)c2ccc(C)c(C)c2)c(=O)c2cc(F)c(N3CCN(C)CC3)cc21` the figure was inactive: 3.87%; with `NC(=O)CSc1oc(-c2ccco2)nc1S(=O)(=O)c1ccc(Br)cc1`, inactive: 0.0792%. `CCc1nnc(NC(=O)c2nc(S(=O)(=O)Cc3cccc(C)c3)ncc2Cl)s1`: the Potency was active: 12.6 µM. Regarding `CCc1nn(CC(=O)NC(C)CCc2ccccc2)c(=O)c2cc3cc(F)ccc3n12` (centres undefined), the “activity change, negative = inhibition” value is inactive: 2.82%. Still for that read-out and setting: with `O=C(Cn1cc(S(=O)(=O)Cc2ccccc2Cl)c2ccccc21)NCc1ccccc1Cl` the figure was inactive: 0.292%. For `COc1cccc(NC(=O)CCS(=O)(=O)c2ccc3c(c2)oc(=O)n3C)c1`, the result was inactive. As to `COc1ccc(NC(=O)Cn2c(=O)n(CCCC(=O)NCc3ccccc3OC)c(=O)c3ccccc32)cc1Cl`, the result was inactive. `Cn1c(NCCCCO)nc2c1c(=O)n(Cc1ccc(Cl)cc1)c(=O)n2C`: the “activity change, negative = inhibition” value is inactive: 0.0009%. Same read-out and setting: the value for `CCN(c1ccccc1)S(=O)(=O)c1cc(-c2onc(C)c2C)ccc1OC` was inactive: -8.62%. As to `Cc1ccc(C)c(Cn2c(C(C)NC(=O)c3ccc(F)cc3)nc3ccccc32)c1` (centres undefined), the outcome was inactive. `CCOc1ccccc1NC(=O)CCS(=O)(=O)c1cccc2nsnc12`: the outcome was inactive. Turning to `Cc1c2cnn(CC(=O)N3CCN(c4ccccc4)CC3)c(=O)c2c(C)n1Cc1ccc(F)cc1`, the “activity change, negative = inhibition” value was inactive: -33.6%. Turning to `COCCn1c(CCC(=O)Nc2cc(C)ccc2C)nc2cccnc21`, the “activity change, negative = inhibition” value was inactive: -0.148%.

Turning to `Cc1ccc(Nc2ncnc3c2cnn3-c2ccccc2)c(C)c1`, the “activity change, negative = inhibition” value is inactive: 1.89%. On the same count and under the same terms, with `Cc1cccc(-c2noc(CCCC(=O)NCc3ccco3)n2)c1` the figure was inactive: -2.09%.

For the molecule `Cc1cccc(N2CCN(C(=O)C3CCCN(S(=O)(=O)c4cccc5nsnc45)C3)CC2)c1C` (centres undefined), the molecule was classed as inactive. For the molecule `O=C1CC(c2ccccc2)Cc2[nH]c(=O)c(C(=O)Nc3ccc(OC(F)(F)F)cc3)cc21` (centres undefined), the “activity change, negative = inhibition” value was inactive: -33.8%. On the same count and under the same terms, with `CCn1c(=O)c2sccc2n2c(CCCC(=O)N3CCN(c4ccc(OC)cc4)CC3)nnc12` the figure was inactive: 16.5%. The same measure, in the same setting: the value for `CCOCCCNC(=O)C(c1ccccc1)N(Cc1cccs1)C(=O)c1ccc(NC(C)=O)cc1` (centres undefined) was inactive: -5.93%; that for `COc1ccc(N2CCN(C(=O)c3c(C)oc4ncnc(N5CCCCC5)c34)CC2)cc1` was inactive: -11.6%; that for `CCc1cccc(NC(=O)c2nnn(Cc3ccc(SC)cc3)c2N)c1` was inactive: 8.92%. Same read-out and setting: with `COc1cccc(N2C(=O)C(CC(=O)Nc3ccc(Cl)cc3)N(Cc3ccc4c(c3)OCO4)C2=O)c1` (centres undefined) the figure was inactive: 6.09%; with `CC(C(=O)O)c1cccc(C(=O)c2ccccc2)c1` (centres undefined), inactive: 7.03%. For `O=C(Nc1ccc(Br)cc1)C1CCCN(S(=O)(=O)c2ccc(Br)s2)C1` (centres undefined), the “activity change, negative = inhibition” value was inactive: -22.7%. On the same count and under the same terms, with `Cn1c(=O)c2c(SCC(=O)N3CCc4ccccc43)nc(-c3cccc(F)c3)nc2n(C)c1=O` the figure was inactive: -9.18%. Consider `CCOc1ccccc1CNC(=O)C1CCN(S(=O)(=O)c2cccc3nonc23)CC1`, for which the molecule was called inactive.

`CCc1ccccc1NC(=O)C(CC)Sc1ncnc2c1sc1ccccc12` (centres undefined): the molecule was classed as inactive.

Turning to `O=C(CCCCCn1c(=O)[nH]c2ccccc2c1=O)NCc1cccc(Cl)c1`, the “activity change, negative = inhibition” value is inactive: -0.663%. On to `Cc1ccc(NC(=O)CN2C(=O)C(c3ccc(F)cc3)=NC23CCCCC3)c(C)c1`, for which the result was inactive. Consider `CCOc1ccc(S(=O)(=O)N2CCN(c3cc(Cl)ccc3Cl)CC2)c2ccccc12`, for which the molecule was called inactive. Regarding `O=c1[nH]c2ccc(NCc3ccc(-c4cccc(Cl)c4)o3)cc2[nH]1`, the “activity change, negative = inhibition” value was inactive: -5.06%.

For `CCOc1ccccc1NC(=O)CSc1nc2c(c(=O)[nH]1)CCC2`, the “activity change, negative = inhibition” value is inactive: -5.41%.
